Cytotoxicity call and growth inhibition call data for 23 compounds are collected here from the antibiotic and cytotoxicity screens of Wong et al. (2023).

Each structure is given as a SMILES string. The list shows a part of the results.

The test system of one assay is HSkMC. In words: cytotoxicity call (relative viability < 0.9). The conditions noted are these: 10 µM.
For the next assay, the system named is HepG2. In words: cytotoxicity call (relative viability < 0.9). The settings on record: 10 µM.
In a further assay the test system is S. aureus RN4220. In words: growth inhibition call (relative growth <= 0.2). The conditions noted are these: 50 µM.

Turning to `O=C(C[C@@H]1C=C[C@H](NS(=O)(=O)c2ccc(F)cc2)[C@@H](CO)O1)NCCN1CCCCC1`, the cytotoxicity call with HSkMC and in the assay with HepG2 was “inactive” throughout. Moreover, the growth inhibition call in the assay with S. aureus RN4220 was “inactive”.

For the compound `COc1ccc(S(=O)(=O)Nc2ccc3c(c2)CC(=O)N([C@H](C)CO)C[C@@H](C)[C@@H](CN(C)Cc2ccc(-c4ccccc4)cc2)O3)cc1`, the cytotoxicity call in the assay on HSkMC and in the assay on HepG2 was “active” each time. Besides, the growth inhibition call in the assay with S. aureus RN4220 was “inactive”.

Consider `COc1ccc(CNC(=O)C[C@@H]2CC[C@@H]3[C@H](COc4ccc(NC(=O)C(C)C)cc4C(=O)N3C)O2)cc1`, for which the cytotoxicity call in the assay with HSkMC and with HepG2 was “inactive” in each case. Moreover, the growth inhibition call in the assay on S. aureus RN4220 was “inactive”.

Regarding `C[C@H]1CCCCO[C@H](CN(C)C(=O)Nc2ccccc2)[C@@H](C)CN([C@@H](C)CO)C(=O)c2cc(NC(=O)CCC(F)(F)F)ccc2O1`, the cytotoxicity call with HSkMC and in the assay with HepG2 was “inactive” each time. In addition, the growth inhibition call with S. aureus RN4220 was “inactive”.

In the case of `C[C@@H]1CN([C@@H](C)CO)C(=O)Cc2cc(NC(=O)Nc3ccc(F)cc3)ccc2O[C@H]1CN(C)S(=O)(=O)c1cn(C)cn1`, the cytotoxicity call with HSkMC and in the assay with HepG2 was “inactive” each time. Also, the growth inhibition call in the assay on S. aureus RN4220 was “inactive”.

As to `CCc1nc2ccc(C(=O)N3CCN(S(=O)(=O)CC)CC3)cn2c1N(CC)C(=O)NCCc1ccccc1`, the cytotoxicity call with HSkMC and in the assay with HepG2 was “inactive” throughout. Also, the growth inhibition call with S. aureus RN4220 was “inactive”.

As to `C[C@@H]1CCCCO[C@H](CN(C)Cc2ccc(C(=O)O)cc2)[C@@H](C)CN([C@H](C)CO)C(=O)c2cc(NC(=O)Nc3ccc4c(c3)OCO4)ccc2O1`, the cytotoxicity call in the assay on HSkMC and in the assay on HepG2 was “inactive” throughout. Also, the growth inhibition call in the assay with S. aureus RN4220 was “inactive”.

Take `C[C@H](CO)N1C[C@H](C)[C@@H](CN(C)Cc2ccc(Cl)c(Cl)c2)Oc2ccc(NC(=O)Nc3ccc(C(F)(F)F)cc3)cc2CC1=O`: the cytotoxicity call with HSkMC and with HepG2 was “active” throughout. The growth inhibition call in the assay with S. aureus RN4220 is “inactive”.

In the case of `C[C@H](CO)N1C[C@H](C)[C@H](CN(C)S(=O)(=O)c2cn(C)cn2)Oc2cc(C3=CCCCC3)ccc2S1(=O)=O`, the cytotoxicity call with HSkMC and with HepG2 was “inactive” in each case. Besides, in the assay with S. aureus RN4220, the growth inhibition call was “inactive”.

Regarding `N[C@@H](Cc1ccc(Cl)cc1)C(=O)O`, the cytotoxicity call with HSkMC and with HepG2 was “inactive” throughout. Besides, the growth inhibition call in the assay on S. aureus RN4220 is “inactive”.

`Nc1c[n+](N2CCOCC2)no1`: the cytotoxicity call in the assay with HSkMC and with HepG2 was “inactive” throughout. Besides, the growth inhibition call in the assay with S. aureus RN4220 was “inactive”.

In the case of `COc1ccc(NC(=O)O[C@H]2[C@@H]3OC(=O)[C@@H](Cc4ccc5ccccc5c4)C/C=C/C[C@H](Cc4ccc5ccccc5c4)C(=O)O[C@H]3[C@@H](OC)O[C@@H]2CO)cc1`, the cytotoxicity call in the assay on HSkMC is “inactive”. In addition, the cytotoxicity call in the assay with HepG2 is “active”. For the same compound, the growth inhibition call in the assay with S. aureus RN4220 was “inactive”.

For the compound `C[C@H]1CN([C@@H](C)CO)C(=O)Cc2cc(NC(=O)CCN3CCOCC3)ccc2O[C@H]1CN(C)CC1CCCCC1`, the cytotoxicity call in the assay on HSkMC and in the assay with HepG2 was “inactive” in each case. In addition, the growth inhibition call in the assay with S. aureus RN4220 is “inactive”.

Regarding `CN(C)CCCCNC(=O)[C@@H]1C[C@@H]2C(=O)NCC(=O)N2[C@@H]1c1cccc(OCCO)c1`, the cytotoxicity call in the assay on HSkMC and in the assay on HepG2 was “inactive” each time. Further, the growth inhibition call with S. aureus RN4220 is “inactive”.

For `C[C@H]1CN([C@@H](C)CO)C(=O)Cc2cc(NS(C)(=O)=O)ccc2O[C@H]1CN(C)S(=O)(=O)c1ccc(Cl)cc1`, the cytotoxicity call with HSkMC and in the assay with HepG2 was “inactive” in each case. Also, the growth inhibition call with S. aureus RN4220 was “inactive”.

On to `CO[C@H]1O[C@H](CO)[C@@H](OC(=O)Nc2ccc3c(c2)OCO3)[C@H](OC(=O)Nc2ccc3c(c2)OCO3)[C@@H]1OC(=O)Nc1ccc2c(c1)OCO2`, for which the cytotoxicity call with HSkMC was “inactive”. Moreover, the cytotoxicity call with HepG2 was “active”. Moreover, the growth inhibition call in the assay with S. aureus RN4220 is “inactive”.

For the compound `C=CCC[C@@H](Cc1ccc(F)cc1)C(=O)OC[C@H](Cc1c[nH]c2ccccc12)NC(=O)[C@@H](CC=C)CC(=O)N[C@H](CO)Cc1ccccc1`, the cytotoxicity call with HSkMC and with HepG2 was “inactive” each time. In addition, in the assay on S. aureus RN4220, the growth inhibition call was “inactive”.

For the compound `C[C@@H]1CCCCO[C@H](CN(C)S(=O)(=O)c2ccc(Cl)cc2)[C@@H](C)CN([C@@H](C)CO)C(=O)c2cc(NC(=O)C3CCCCC3)ccc2O1`, the cytotoxicity call with HSkMC and with HepG2 was “inactive” in each case. Besides, the growth inhibition call in the assay on S. aureus RN4220 is “inactive”.

On to `CNC(=O)c1cc(S(=O)(=O)N(C)C[C@@H]2Oc3ccc(NC(=O)Nc4ccc(F)cc4)cc3CC(=O)N([C@@H](C)CO)C[C@@H]2C)cs1`, for which the cytotoxicity call in the assay on HSkMC and with HepG2 was “inactive” throughout. The growth inhibition call with S. aureus RN4220 is “inactive”.

`CC(=O)[C@@]12O[C@]3(COC[C@H](c4ccccc4)N3C1=O)[C@@H]1C(=O)N(C)C(=O)[C@@H]12`: the cytotoxicity call in the assay on HSkMC (human skeletal muscle cells) and with HepG2 was “inactive” throughout. The growth inhibition call in the assay with S. aureus RN4220 was “inactive”.

Regarding `C[C@@H]1CN([C@@H](C)CO)C(=O)Cc2cc(NC(=O)Cc3ccccc3)ccc2O[C@H]1CN(C)Cc1ccc(Oc2ccccc2)cc1`, the cytotoxicity call in the assay with HSkMC and with HepG2 was “inactive” in each case. In the assay with S. aureus RN4220, the growth inhibition call was “inactive”.

Regarding `COCC(=O)N1CCO[C@@H]2[C@H]1CC[C@H]2OC`, the cytotoxicity call with HSkMC and in the assay with HepG2 was “inactive” each time. For the same compound, the growth inhibition call in the assay with S. aureus RN4220 was “inactive”.

With `C[C@H]1CN([C@@H](C)CO)C(=O)c2cc(NS(=O)(=O)c3cccs3)ccc2O[C@@H]1CN(C)Cc1ccc(Oc2ccccc2)cc1`, the cytotoxicity call in the assay with HSkMC and in the assay on HepG2 was “inactive” each time. In addition, the growth inhibition call in the assay on S. aureus RN4220 is “inactive”.
